Source: publication PMC4132714, “Phospho-dependent and phospho-independent interactions of the helicase UPF1 with the NMD factors SMG5–SMG7 and SMG6” (Nucleic Acids Research, 2014)
No constants are given. Whether binding was seen depends on the method and setting. For some of these results: Binding seen in cells or lysates may run through a third protein. Some results given as binding are weak or reduced against the parent protein; the word gives no strength. For some of these results: Tags and fused reporters may be left off the sequences shown.

The chains behind the UniProt entries cited, without tags or fusion partners. Where a name states a change or a piece, a line headed by the entry shows the natural chain unless it says otherwise. Residues count along the entry.
UniProt Q86US8: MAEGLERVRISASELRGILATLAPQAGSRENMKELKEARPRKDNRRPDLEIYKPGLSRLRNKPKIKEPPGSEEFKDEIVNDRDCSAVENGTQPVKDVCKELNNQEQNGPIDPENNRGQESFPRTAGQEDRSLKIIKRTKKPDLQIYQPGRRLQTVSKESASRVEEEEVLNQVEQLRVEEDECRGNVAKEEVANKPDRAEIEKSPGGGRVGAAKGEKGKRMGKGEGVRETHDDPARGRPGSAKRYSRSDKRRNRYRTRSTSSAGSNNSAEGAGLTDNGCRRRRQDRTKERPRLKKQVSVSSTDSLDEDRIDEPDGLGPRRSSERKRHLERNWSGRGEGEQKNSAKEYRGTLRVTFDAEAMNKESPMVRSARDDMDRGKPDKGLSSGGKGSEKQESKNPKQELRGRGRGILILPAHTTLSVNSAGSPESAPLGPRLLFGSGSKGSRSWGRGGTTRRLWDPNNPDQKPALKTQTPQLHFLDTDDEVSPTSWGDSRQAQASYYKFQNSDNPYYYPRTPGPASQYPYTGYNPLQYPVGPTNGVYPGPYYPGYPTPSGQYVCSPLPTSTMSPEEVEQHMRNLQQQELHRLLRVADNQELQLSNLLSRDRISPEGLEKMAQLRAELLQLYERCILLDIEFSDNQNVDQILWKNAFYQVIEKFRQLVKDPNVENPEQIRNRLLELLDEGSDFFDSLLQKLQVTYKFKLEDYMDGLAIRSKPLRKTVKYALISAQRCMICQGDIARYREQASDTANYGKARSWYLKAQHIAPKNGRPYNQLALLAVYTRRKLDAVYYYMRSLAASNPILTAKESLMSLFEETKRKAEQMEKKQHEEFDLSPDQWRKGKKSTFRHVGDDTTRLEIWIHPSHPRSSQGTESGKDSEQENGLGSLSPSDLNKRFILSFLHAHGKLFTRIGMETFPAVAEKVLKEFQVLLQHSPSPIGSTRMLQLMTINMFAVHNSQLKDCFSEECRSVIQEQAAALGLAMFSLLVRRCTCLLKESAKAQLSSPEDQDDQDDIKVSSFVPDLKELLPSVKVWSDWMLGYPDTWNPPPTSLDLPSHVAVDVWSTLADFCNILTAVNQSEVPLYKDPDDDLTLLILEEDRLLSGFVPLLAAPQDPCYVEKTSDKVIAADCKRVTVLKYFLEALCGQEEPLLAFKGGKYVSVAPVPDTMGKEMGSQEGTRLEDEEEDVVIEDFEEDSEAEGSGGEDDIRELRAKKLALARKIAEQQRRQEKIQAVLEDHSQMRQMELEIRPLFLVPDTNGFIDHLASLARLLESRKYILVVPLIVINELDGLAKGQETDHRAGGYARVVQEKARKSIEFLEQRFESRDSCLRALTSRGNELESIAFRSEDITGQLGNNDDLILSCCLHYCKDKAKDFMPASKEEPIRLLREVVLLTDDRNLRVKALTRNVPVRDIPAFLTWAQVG
GST-SMG6 TPR (residues 580–1166): residues 580-1166 of Q86US8

T1: Flag-His-UPF1fl expressed in HEK 293T cells (human) (UniProt Q92900)
T1 sequence: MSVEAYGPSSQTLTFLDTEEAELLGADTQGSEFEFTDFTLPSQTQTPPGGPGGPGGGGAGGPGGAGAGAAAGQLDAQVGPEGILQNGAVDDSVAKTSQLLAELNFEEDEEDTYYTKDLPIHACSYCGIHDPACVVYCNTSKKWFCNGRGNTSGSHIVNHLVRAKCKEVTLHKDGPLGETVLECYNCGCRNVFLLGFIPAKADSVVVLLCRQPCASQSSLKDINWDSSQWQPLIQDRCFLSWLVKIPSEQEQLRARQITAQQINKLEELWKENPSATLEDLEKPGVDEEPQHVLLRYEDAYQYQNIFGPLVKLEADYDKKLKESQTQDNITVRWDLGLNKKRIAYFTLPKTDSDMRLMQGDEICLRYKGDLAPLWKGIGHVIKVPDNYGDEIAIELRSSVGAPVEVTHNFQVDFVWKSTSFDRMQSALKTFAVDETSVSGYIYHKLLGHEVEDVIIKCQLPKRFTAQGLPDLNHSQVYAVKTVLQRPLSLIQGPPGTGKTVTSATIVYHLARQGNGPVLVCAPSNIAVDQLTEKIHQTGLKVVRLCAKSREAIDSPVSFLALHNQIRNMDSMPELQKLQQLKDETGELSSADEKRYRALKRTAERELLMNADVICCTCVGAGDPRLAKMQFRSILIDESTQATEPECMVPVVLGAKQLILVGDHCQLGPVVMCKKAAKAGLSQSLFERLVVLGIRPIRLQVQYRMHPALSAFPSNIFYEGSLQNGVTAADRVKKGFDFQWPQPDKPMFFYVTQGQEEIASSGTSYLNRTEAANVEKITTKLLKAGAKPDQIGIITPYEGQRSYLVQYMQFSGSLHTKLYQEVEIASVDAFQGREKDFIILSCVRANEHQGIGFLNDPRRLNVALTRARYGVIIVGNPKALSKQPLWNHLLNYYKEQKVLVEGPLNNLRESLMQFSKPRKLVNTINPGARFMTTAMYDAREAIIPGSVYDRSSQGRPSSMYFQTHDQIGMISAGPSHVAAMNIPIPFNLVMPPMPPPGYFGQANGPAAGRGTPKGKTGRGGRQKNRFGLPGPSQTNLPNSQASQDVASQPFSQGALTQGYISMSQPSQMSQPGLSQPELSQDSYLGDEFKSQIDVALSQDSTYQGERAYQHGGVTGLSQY

T2: GST-UPF1CT (residues 917–1118), unphosphorylated (human) (UniProt Q92900)
T2 sequence: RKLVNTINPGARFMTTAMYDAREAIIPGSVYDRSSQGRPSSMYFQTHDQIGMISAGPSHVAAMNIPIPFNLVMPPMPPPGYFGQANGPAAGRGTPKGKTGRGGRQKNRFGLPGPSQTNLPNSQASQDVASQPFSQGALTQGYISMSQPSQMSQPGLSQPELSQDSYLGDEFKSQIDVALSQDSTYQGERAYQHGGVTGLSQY

T3: SMG5 TPR (SMG5 1–803, Δ408–632) (human) (UniProt Q9UPR3)
T3 sequence: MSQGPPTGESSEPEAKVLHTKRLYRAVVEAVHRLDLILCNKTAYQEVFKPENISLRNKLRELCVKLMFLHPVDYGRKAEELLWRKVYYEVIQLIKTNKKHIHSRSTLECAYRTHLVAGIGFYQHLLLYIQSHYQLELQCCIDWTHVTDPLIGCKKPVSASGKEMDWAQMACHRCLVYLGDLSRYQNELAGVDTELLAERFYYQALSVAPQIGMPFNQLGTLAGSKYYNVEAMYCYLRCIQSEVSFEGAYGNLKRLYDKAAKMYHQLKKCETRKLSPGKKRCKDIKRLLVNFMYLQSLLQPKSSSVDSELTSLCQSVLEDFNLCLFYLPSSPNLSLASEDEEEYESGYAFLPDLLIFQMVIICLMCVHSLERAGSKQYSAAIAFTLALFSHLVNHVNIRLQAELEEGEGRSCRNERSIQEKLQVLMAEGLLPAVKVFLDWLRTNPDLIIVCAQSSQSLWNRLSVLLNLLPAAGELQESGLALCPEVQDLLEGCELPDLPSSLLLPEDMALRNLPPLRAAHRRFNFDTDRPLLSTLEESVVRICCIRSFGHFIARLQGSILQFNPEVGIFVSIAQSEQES

B1: SMG7 TPR (residues 1–499) (domain or fragment, UniProt Q92540 1-499)
chain: MSLQSAQYLRQAEVLKADMTDSKLGPAEVWTSRQALQDLYQKMLVTDLEYALDKKVEQDLWNHAFKNQITTLQGQAKNRANPNRSEVQANLSLFLEAASGFYTQLLQELCTVFNVDLPCRVKSSQLGIISNKQTHTSAIVKPQSSSCSYICQHCLVHLGDIARYRNQTSQAESYYRHAAQLVPSNGQPYNQLAILASSKGDHLTTIFYYCRSIAVKFPFPAASTNLQKALSKALESRDEVKTKWGVSDFIKAFIKFHGHVYLSKSLEKLSPLREKLEEQFKRLLFQKAFNSQQLVHVTVINLFQLHHLRDFSNETEQHTYSQDEQLCWTQLLALFMSFLGILCKCPLQNESQEESYNAYPLPAVKVSMDWLRLRPRVFQEAVVDERQYIWPWLISLLNSFHPHEEDLSSISATPLPEEFELQGFLALRPSFRNLDFSKGHQGITGDKEGQQRRIRQQRLISIGKWIADNQPRLIQCENEVGKLLFITEIPELILEDPSE
B2: SMG5–7 TPR complex (heterodimer of SMG5 TPR and SMG7 TPR) (complex, UniProt Q9UPR3 1-803; Q92540 1-499)
chain 1: T3 sequence
chain 2: B1 chain

Tests used:
[1] = target: T1, Flag-His-UPF1fl expressed in HEK 293T cells (human); test: co-IP; HEK 293T co-transfected with HA-SMG6 constructs and Flag-His-UPF1fl; extracts in NET-G buffer (50 mM Tris-HCl pH 8.0, 150 mM NaCl, 0.1% NP-40, 1 mM EDTA, 10% glycerol); anti-Flag M2 resin, 1 h at 4°C; anti-HA and anti-Flag blots; no RNase A
[2] = target: SMG6 TPR (residues 580–1166), untagged (human) (UniProt Q86US8); test: AUC; sedimentation velocity; 0.4 mg/ml in 20 mM HEPES pH 7.5, 150 mM NaCl, 5% glycerol; 280 nm, 50 000 rpm, 20°C; both purified
[3] = target: SMG6 TPR (residues 580–1166), untagged (human) (UniProt Q86US8); test: SEC; purified SMG5–7 TPR complex and SMG6 TPR injected separately on Superdex 200 HR 10/30; chromatograms overlaid; both purified
[4] = target: GST-SMG6 TPR (residues 580–1166) (human) (UniProt Q86US8); test: condition: ∼2 μg of bait with equal amounts of prey in 45 μl; pull-down; GST pull-down, one prey: ∼2 μg GST-tagged bait with equal amount of untagged prey in 20 mM HEPES pH 7.5, 125 mM NaCl, 2% glycerol, 2 mM DTT (45 μl), 45 min at room temperature; glutathione–Sepharose beads in 20 mM HEPES pH 7.5, 150 mM NaCl, 10% glycerol, 2 mM DTT, 0.1% NP-40, 1 h at 4°C; eluted with glutathione; SDS-PAGE, Coomassie; GST-UPF1 constructs pre-treated with SMG1 wt or SMG1 KD where indicated; both purified
[5] = target: T2, GST-UPF1CT (residues 917–1118), unphosphorylated (human); test: pull-down; GST pull-down, one prey: ∼2 μg GST-tagged bait with equal amount of untagged prey in 20 mM HEPES pH 7.5, 125 mM NaCl, 2% glycerol, 2 mM DTT (45 μl), 45 min at room temperature; glutathione–Sepharose beads in 20 mM HEPES pH 7.5, 150 mM NaCl, 10% glycerol, 2 mM DTT, 0.1% NP-40, 1 h at 4°C; eluted with glutathione; SDS-PAGE, Coomassie; GST-UPF1 constructs pre-treated with SMG1 wt or SMG1 KD where indicated; both purified
[6] = target: T3, SMG5 TPR (SMG5 1–803, Δ408–632) (human); test: co-purification; His-(TEV)-SMG7 and SMG5-His co-expressed in E. coli; Ni2+ affinity, TEV cleavage, second Ni2+ affinity, anion exchange
[7] = target: T3, SMG5 TPR (SMG5 1–803, Δ408–632) (human); test: SEC; purified SMG5–7 TPR complex and SMG6 TPR injected separately on Superdex 200 HR 10/30; chromatograms overlaid; both purified

Row | Molecule | binding [1] | binding [4] | other results
1 | HA-SMG6CT (residues 580–1419; TPR and PIN domains) (from UniProt Q86US8 580-1419) (domain or fragment) | no binding | – | –
2 | HA-SMG6NT1 (residues 1–206; contains both EBMs) (from UniProt Q86US8 1-206) (domain or fragment) | no binding | – | –
3 | HA-SMG6NT2 (residues 207–579; low-complexity stretch proximal to the TPR domain) (from UniProt Q86US8 207-579) (domain or fragment) | binds | – | –
4 | HA-SMG6NT (residues 1–580) (from UniProt Q86US8 1-580) (domain or fragment) | binds | – | –
5 | HA-SMG6fl expressed in HEK 293T cells (from UniProt Q86US8 1-1419) | binds | – | –
6 | SMG6 TPR (residues 580–1166), untagged (from UniProt Q86US8 580-1166) (domain or fragment) | – | no binding | binding [2]: no binding (tested: 0.4 mg/ml); binding [3]: no binding
7 | SMG6fl (HA-Flag tagged, purified from HEK 293T cells) (from UniProt Q86US8 1-1419) | – | – | binding [5]: binds weakly
8 | B1 | – | no binding | binding [6]: binds; binding [7]: binds
9 | B2 | – | no binding | –
